The full ranking holds about 18,000 sequences; the median of “TetR repression strength (sort-seq, GFP reporter)” is about 0.23, and the highest 2% start at about 0.68. Some of the results follow.

Chain of UniProt P04483 (P04483 whole entry): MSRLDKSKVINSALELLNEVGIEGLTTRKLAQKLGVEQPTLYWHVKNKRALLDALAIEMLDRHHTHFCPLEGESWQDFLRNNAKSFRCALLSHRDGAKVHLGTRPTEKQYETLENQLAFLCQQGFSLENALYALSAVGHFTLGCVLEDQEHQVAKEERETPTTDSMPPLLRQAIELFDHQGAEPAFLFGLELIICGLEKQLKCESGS

This experiment concerns the target TetR (class B, Tn10) (UniProt P04483). As to the kind of experiment: TetR repression strength (sort-seq, GFP reporter) (relative to tetO2 = 1); higher = stronger repression. The settings on record: E. coli. A digest of the protocol:
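E. coli SIG10-MAX carried a low-copy plasmid library with eight randomized operator positions between a constitutive promoter and sfGFP, with TetR constitutively expressed. Cells grew 5 h at 37 °C in LB with 50 µg/mL chloramphenicol, then 10^6 cells were FACS-sorted into 13 fluorescence bins, each Illumina-sequenced. Repression strength is the top bin index plus one minus the read-weighted mean bin, divided by the wild-type operator value. Three independent transformations; variants with ≥30 reads in all replicates and CV ≤0.5 were averaged.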
In turn, TCCCAAGAAGTGGCAGAGA gave a TetR repression strength of 0.317.
As to TCCCTCGCAGTAAGGGAGA, the TetR repression strength is 0.229.
Consider TCCCACCGAGTGGGGGAGA, for which the TetR repression strength turned out to be 0.186.
Regarding TCCCAAACAGTGAGGGAGA, the TetR repression strength is 0.344.
TCCCTAGGAGTGTAGGAGA registered a TetR repression strength of 0.14.
The sequence TCCCATTAAGTGACGGAGA displayed a TetR repression strength of 0.116.
In the case of TCCCATGCAGTGCACGAGA, the TetR repression strength is 0.17.
To TCCCGGCGAGTGGCTGAGA belongs 0.16.
To TCCCGGCCAGTTAGTGAGA belongs 0.436; to TCCCTTTTAGTAGGGGAGA, 0.322.
Regarding TCCCTGTAAGTGAGCGAGA, the TetR repression strength turned out to be 0.265.
TCCCCATAAGTAGCTGAGA gave a TetR repression strength of 0.228.
On to TCCCCAATAGTAAGGGAGA, for which the TetR repression strength is 0.521.
Regarding TCCCCGAGAGTTCTTGAGA, the TetR repression strength is 0.291.
TCCCGTGTAGTCGTAGAGA returned a TetR repression strength of 0.217.
Sequence TCCCCCGGAGTCCCTGAGA displayed a TetR repression strength of 0.471.
For TCCCTCCCAGTCGACGAGA, the TetR repression strength came to 0.24.
Then TCCCACCGAGTTCTCGAGA, with 0.27; and TCCCGAGCAGTAGGGGAGA, with 0.155; and TCCCTGTGAGTCACAGAGA, with 0.205.
Then TCCCGGTGAGTGCAGGAGA, with 0.258; and TCCCCGGGAGTTCTAGAGA, with 0.405; and TCCCGCGAAGTTCGTGAGA, with 0.
TCCCGTGGAGTGAGCGAGA: the TetR repression strength came out at 0.183.
As for TCCCTGGGAGTCAGGGAGA, the TetR repression strength worked out at 0.158.
Sequence TCCCGTAAAGTTGGGGAGA returned a TetR repression strength of 0.173.
TCCCTTTTAGTTGCGGAGA displayed a TetR repression strength of 0.539.
To TCCCCCAAAGTGGGCGAGA belongs 0.104; to TCCCGAACAGTCTCTGAGA, 0.104.
Sequence TCCCTCTGAGTGGTGGAGA showed a TetR repression strength of 0.25.
To TCCCTAAAAGTTTGAGAGA belongs 0.334; to TCCCGAATAGTAGGCGAGA, 0.304; to TCCCCGCGAGTAGGAGAGA, 0.405.
On to TCCCGGCAAGTATCGGAGA, for which the TetR repression strength was 0.179.
TCCCAAGGAGTCCACGAGA registered a TetR repression strength of 0.201.
For TCCCGCAGAGTTACTGAGA, the TetR repression strength turned out to be 0.263.
TCCCTGGTAGTCGGTGAGA: the TetR repression strength is 0.0854.
TCCCGCTTAGTTTCCGAGA showed a TetR repression strength of 0.334.
The sequence TCCCTGCAAGTGAACGAGA displayed a TetR repression strength of 0.378.
For TCCCGATGAGTCGGCGAGA, the TetR repression strength was 0.28.
Then TCCCCGAAAGTATAGGAGA, with 0.11; and TCCCTCTTAGTTGGGGAGA, with 0.241.
Consider TCCCTGGCAGTTTGAGAGA, for which the TetR repression strength turned out to be 0.177.
To TCCCTTACAGTAGCGGAGA belongs 0.0543.
Then TCCCAATAAGTACTGGAGA, with 0.0595.
The sequence TCCCAGATAGTGAGTGAGA came in with a TetR repression strength of 0.181.
Turning to TCCCGCAAAGTTAATGAGA, the TetR repression strength was found to be 0.335.
In turn, TCCCTCACAGTAGGAGAGA came in with a TetR repression strength of 0.28.
Then TCCCAAAAAGTCATCGAGA, with 0.189; and TCCCCAGGAGTGGGAGAGA, with 0.241; and TCCCGTTAAGTTCGGGAGA, with 0.0307.
Regarding TCCCGCACAGTTGCGGAGA, the TetR repression strength stood at 0.173.
As to TCCCGGGGAGTGCGTGAGA, the TetR repression strength is 0.214.
As to TCCCTCGCAGTGACGGAGA, the TetR repression strength amounted to 0.418.
For TCCCGATCAGTAGGTGAGA, the TetR repression strength was found to be 0.292.
In the case of TCCCGGTAAGTCGCTGAGA, the TetR repression strength is 0.311.
As to TCCCTTGAAGTCGCCGAGA, the TetR repression strength is 0.252.
Take TCCCTGTGAGTCCACGAGA: the TetR repression strength turned out to be 0.622.
For the sequence TCCCTATGAGTAGTGGAGA, the TetR repression strength came to 0.707.
The sequence TCCCCGGAAGTGCTGGAGA gave a TetR repression strength of 0.349.
With TCCCGGCAAGTTTGCGAGA, the TetR repression strength was determined as 0.0126.
To TCCCATGAAGTGAAGGAGA belongs 0.072.
TCCCGGTAAGTAGATGAGA: the TetR repression strength worked out at 0.243.
In the case of TCCCTCGCAGTAGGGGAGA, the TetR repression strength stood at 0.22.
Sequence TCCCGCACAGTAGGCGAGA gave a TetR repression strength of 0.112.
To TCCCCTTAAGTCGGTGAGA belongs 0.267; to TCCCTTGGAGTTAGTGAGA, 0.142; to TCCCGGTAAGTGATTGAGA, 0.133.
As for TCCCTGAGAGTCCGAGAGA, the TetR repression strength is 0.416.
In turn, TCCCGTAGAGTGATAGAGA had a TetR repression strength of 0.501.
Regarding TCCCGAGTAGTATCAGAGA, the TetR repression strength came out at 0.302.
In turn, TCCCAAGTAGTGAGGGAGA had a TetR repression strength of 0.152.
TCCCTTGTAGTGGTCGAGA had a TetR repression strength of 0.265.
Consider TCCCCGTGAGTCGGTGAGA, for which the TetR repression strength stood at 0.261.
As to TCCCGTGGAGTCCGAGAGA, the TetR repression strength was 0.39.
Then TCCCCTTGAGTGAGAGAGA, with 0.191; and TCCCGTTGAGTCGAAGAGA, with 0.233; and TCCCGACGAGTGGGGGAGA, with 0.209.
With TCCCCTTCAGTTACTGAGA, the TetR repression strength turned out to be 0.28.
Sequence TCCCACCCAGTGGTAGAGA gave a TetR repression strength of 0.357.
Sequence TCCCTGCGAGTGGAGGAGA gave a TetR repression strength of 1.08.
TCCCAAGGAGTCGGCGAGA gave a TetR repression strength of 0.743.
In turn, TCCCGGATAGTTGGTGAGA yielded a TetR repression strength of 0.0558.
In turn, TCCCTGGTAGTTGGCGAGA registered a TetR repression strength of 0.0874.
Then TCCCGATTAGTACGTGAGA, with 0.552; and TCCCCTATAGTGATGGAGA, with 0.189; and TCCCCTATAGTAAGAGAGA, with 0.143.
To TCCCCGACAGTGCAGGAGA belongs 0.299; to TCCCAGTTAGTTCGGGAGA, 0.0688; to TCCCCCTGAGTAGGGGAGA, 0.307.
In turn, TCCCGATTAGTGTGTGAGA showed a TetR repression strength of 0.0284.
TCCCTGTCAGTGAGTGAGA showed a TetR repression strength of 0.562.
To TCCCGGACAGTGAGGGAGA belongs 0.185.
TCCCCTTCAGTCAAGGAGA gave a TetR repression strength of 0.253.
Consider TCCCGTGCAGTATGCGAGA, for which the TetR repression strength stood at 0.202.
To TCCCAGTAAGTCGCCGAGA belongs 0.199; to TCCCTTAGAGTAGACGAGA, 0.376.
TCCCTTGGAGTGATTGAGA: the TetR repression strength turned out to be 0.256.
Turning to TCCCGGTGAGTTTGGGAGA, the TetR repression strength is 0.277.
TCCCGCGGAGTGTTTGAGA registered a TetR repression strength of 0.31.
For the sequence TCCCAGTTAGTGAAGGAGA, the TetR repression strength was determined as 0.145.
TCCCTTGAAGTTACCGAGA registered a TetR repression strength of 0.844.
Turning to TCCCGGGGAGTAAAGGAGA, the TetR repression strength was 0.252.
Then TCCCCGGAAGTCGTAGAGA, with 0.284.
Turning to TCCCGGGTAGTATGGGAGA, the TetR repression strength is 0.254.
For the sequence TCCCACATAGTGCAGGAGA, the TetR repression strength was determined as 0.141.
TCCCCTGCAGTTCTGGAGA gave a TetR repression strength of 0.0734.
Then TCCCGGATAGTGCCTGAGA, with 0.216.
Sequence TCCCTTAAAGTATCCGAGA showed a TetR repression strength of 0.19.
Sequence TCCCGGCTAGTGGGTGAGA registered a TetR repression strength of 0.182.
Then TCCCCGGCAGTAGGGGAGA, with 0.177; and TCCCACGTAGTTTTCGAGA, with 0.415.
TCCCCCGAAGTGCTGGAGA displayed a TetR repression strength of 0.277.
TCCCCTCAAGTGCTGGAGA returned a TetR repression strength of 0.207.
The sequence TCCCTGAAAGTGCTGGAGA had a TetR repression strength of 0.311.
To TCCCCAATAGTAGGGGAGA belongs 0.245; to TCCCACTCAGTCGAGGAGA, 0.205; to TCCCAACGAGTGGACGAGA, 0.155.
The sequence TCCCTGGCAGTATAGGAGA returned a TetR repression strength of 0.266.
On to TCCCCATCAGTCGGTGAGA, for which the TetR repression strength was 0.144.
To TCCCCCGCAGTCGGCGAGA belongs 0.0843.
Then TCCCGCGAAGTGTCGGAGA, with 0.283; and TCCCGAACAGTGGACGAGA, with 0.383.
Then TCCCGTCAAGTTCGCGAGA, with 0.256; and TCCCGCAGAGTCCTAGAGA, with 0.295; and TCCCATACAGTGTGGGAGA, with 0.337.
Sequence TCCCTTGTAGTAAGTGAGA yielded a TetR repression strength of 0.152.
The sequence TCCCGACGAGTGACAGAGA yielded a TetR repression strength of 0.584.
TCCCGCGTAGTGCTGGAGA showed a TetR repression strength of 0.155.
TCCCCGTAAGTAGCAGAGA registered a TetR repression strength of 0.244.

The record behind these values is a collection of fitness landscapes (doi:10.1038/s41467-024-54723-y).
